In the supplement of paper PMC3334620:
In all, about 33,000 sequences were measured (“E-score (-0.5 to 0.5)”: median about -0.041, highest 2% from about 0.37 on). Some of the results follow.

Biological target: T1, Ecm22 (UniProt Q05958)
T1 sequence: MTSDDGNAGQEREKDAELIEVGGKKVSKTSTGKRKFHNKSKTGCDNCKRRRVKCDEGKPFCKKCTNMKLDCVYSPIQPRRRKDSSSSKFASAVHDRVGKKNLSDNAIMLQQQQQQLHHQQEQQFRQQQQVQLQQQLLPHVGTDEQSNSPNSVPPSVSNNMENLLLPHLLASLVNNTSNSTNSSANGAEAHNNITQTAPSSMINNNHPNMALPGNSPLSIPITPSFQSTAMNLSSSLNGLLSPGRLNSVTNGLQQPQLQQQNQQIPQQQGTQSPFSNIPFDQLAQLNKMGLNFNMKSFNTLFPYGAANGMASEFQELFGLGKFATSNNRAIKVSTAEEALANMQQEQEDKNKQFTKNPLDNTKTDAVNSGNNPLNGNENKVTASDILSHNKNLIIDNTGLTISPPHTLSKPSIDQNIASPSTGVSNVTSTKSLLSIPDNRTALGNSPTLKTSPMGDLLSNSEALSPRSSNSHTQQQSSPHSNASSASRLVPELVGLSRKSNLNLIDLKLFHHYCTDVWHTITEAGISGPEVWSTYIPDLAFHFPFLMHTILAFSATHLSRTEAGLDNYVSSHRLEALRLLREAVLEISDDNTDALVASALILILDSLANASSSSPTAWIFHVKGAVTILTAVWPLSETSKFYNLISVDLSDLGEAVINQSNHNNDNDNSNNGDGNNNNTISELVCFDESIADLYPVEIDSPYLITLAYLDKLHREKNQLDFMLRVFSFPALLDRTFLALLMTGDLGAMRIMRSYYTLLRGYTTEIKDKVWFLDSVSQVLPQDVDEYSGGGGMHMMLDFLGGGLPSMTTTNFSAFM
Assay: PBM E-score (8-mer binding enrichment) (E-score (-0.5 to 0.5)); higher = stronger / more preferred TF binding; most listed sequences are background and not binding sites
Settings: protein concentration: 200 nM; construct: GST-full length
Method in brief: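 Universal all-10-mer Agilent arrays, double-stranded by primer extension on fresh or once-stripped slides, were probed with about 100-200 nM GST-tagged yeast transcription factors made by PURExpress. Fluorescent anti-GST detected bound protein, and masliner normalised the scans. E-scores from the Universal PBM Analysis Suite were given to each ungapped eight-base word pooled with its reverse complement.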

Sequence	PBM E-score
ATTGATGG	-0.0207
CGACGGAG	0.16
CCTACGAA	0.192
CCGTTCAC	0.112
GAAGGTCA	-0.171
ACCTCCTC	-0.139
CCCTTCTC	-0.218
GAATCTCC	-0.00162
CGCATCGC	0.145
CCGAAAGA	0.0474
CTTGTGTA	0.0457
ATCCTCCG	0.0278
CGACACTC	0.206
GACAATAA	-0.0114
CTAGTAAC	-0.169
CAGCGCGG	-0.0854
ATCGTCGC	0.252
ACGTACTA	0.188
CGATTCTC	-0.0102
GAGGGGAA	0.00187
GACCCGCA	0.00101
CCTACTCC	-0.277
GCGCTCCA	-0.112
ACGGGCCC	0.0438
CGGACGAA	0.198

Sequence	PBM E-score
GGACTTGA	-0.2
ATTCTTGG	-0.0722
ATTAAACC	-0.0934
ATCAATGA	0.205
AGACCCCT	-0.299
GGCCCACC	-0.182
CATATTCG	0.106
GCGTATAA	0.394
GTAGACAA	0.0404
ACATCAAG	-0.119
CTGATCCA	-0.21
ATCTATAG	-0.164
GAGTGCTA	0.0828
AACTCCGG	0.0763
CGCGCTCC	0.117
AGTTTGTC	-0.103
ACGGTATG	0.133
AGTTACCG	0.0445
ATCGCTAC	0.148
AAATCAAA	-0.175
TGAACCAA	-0.0617
AACAAGCC	-0.0852
AAAGAGCG	0.135
GCCCCACA	0.0569
GCGGGTCC	-0.101

Sequence	PBM E-score
CGTCCTTA	-0.0472
GCTATTCC	-0.196
AATATAGG	0.104
TCGAACAA	0.109
CGTGGGAC	-0.0101
CTGGCTCA	-0.241
GAAGGAGC	-0.174
ACATCTGG	0.0224
CTCCACGA	-0.0272
CCAGGGCG	-0.202
ATGCCTTG	-0.0994
GAATTGAC	-0.0283
AATATTCA	-0.128
CAACAGTA	0.00245
AAGTCCCA	-0.119
CTGAGTGA	-0.0742
AGTAGATC	-0.0961
ACCGACAA	0.185
AAAAAGCG	0.0833
GGGGCTCA	-0.275
AAAGAAAT	0.0461
CCCTATCC	0.00567
CACTTACA	-0.0774
GCTGTCGA	0.0391
ATTCCCCG	-0.0989

Sequence	PBM E-score
CACTGCTG	-0.147
CATTTGAG	-0.115
AATTTCAT	-0.0174
CGGGACCA	-0.246
CTCGGGTA	0.272
ACAGGTCA	-0.0628
AAGACCTA	-0.139
ACAGCGCC	-0.0248
CGCCCGTC	-0.0401
AATACGGG	0.229
GTCGGAAA	0.248
GTGTACTA	0.207
ATTCTACG	0.25
GCGCCGCC	0.0635
GTAAGGTA	0.158
CAGTTCTC	-0.0842
GATGCGTA	0.166
AGAGGAAT	-0.0801
ATGCCCTG	-0.256
CAAGCTTG	-0.327
ACATAATC	0.194
CTATCTCA	-0.201
AGACTTTC	-0.337
AAACCCCC	-0.299
ATGAGCCG	-0.118

Sequence	PBM E-score
GAGTTCCC	-0.0826
AGAGTATA	0.0674
ACCTTCTG	-0.0813
TCTACAAA	-0.0993
ACTTGAGA	-0.0267
AATGTAGT	-0.114
AATCTTAT	-0.129
AACATGTA	0.0275
AGCAATAC	0.14
ACTTTCCG	-0.0559
ATCAATTA	0.139
ACCTTGGG	-0.21
AGGTGGCG	-0.138
TGTGTGAA	-0.0519
GAGCCGGC	-0.0401
TCATGAAA	0.0405
AGTTTATG	-0.158
CTAAGATA	-0.161
CACCTCTC	-0.332
ATGTGTCG	0.163
CAGTTCGG	0.0228
CGTGAGCC	-0.0587
GTTTTCGA	0.0691
GGGGTGGA	-0.285
AACGAAAG	0.399

Sequence	PBM E-score
CATTGGTC	-0.204
CACAAATC	-0.0624
AAAGTTCC	-0.191
ACTGGTCG	-0.00202
GACAGCAA	-0.203
CGGTAAAG	0.212
ACGATCTA	0.22
CTGGACCC	-0.301
GATCGCAC	0.156
ACTCAAGC	-0.33
CCCTGATA	-0.194
GAAGAGTC	0.02
CATTGCCC	-0.203
ATGTTAAA	-0.102
ACGGATGG	0.207
GCCTCATA	-0.0737
ACGAGGGC	0.374
AGTAATCC	-0.126
AGGGCGAG	-0.041
AAAGGCTC	-0.00176
ACCTCTTA	0.118
TCTCACAA	-0.0348
CTGATTCA	-0.297
CAGTTGGA	-0.0473
GACTATCA	-0.0739

Sequence	PBM E-score
CGTCGATA	-0.142
ATCAAAAC	-0.0829
ATCAGACC	-0.179
GGAAGTCC	-0.249
GATGTAGC	-0.0899
AATGAGCT	-0.037
ATCGCAAC	0.135
AATATGCA	-0.00647
TAGCATCA	-0.042
TCCCAAAA	-0.0844
GCATCAGC	-0.0738
AATCTAGC	-0.159
CTCCGTTC	0.297
CACAGACC	-0.0348
CAAGCAGG	-0.249
ACGGCCAA	0.0263
AGCAACTC	-0.0855
CGTCTCGC	0.185
AATCTGAA	-0.0785
CCTTACGA	0.383
ATCTCTAA	-0.0286
TCATAACA	-0.0191
